From PubChem BioAssay AID360 (National Center for Advancing Translational Sciences (NCATS), 2006)
The whole screen tested about 48,000 compounds, of which about 550 (1.1%) were called active. Not shown: some 4% with an inconclusive outcome. Rule as the data show it: active = potency below about 15 µM; inconclusive = mostly about 16 µM to 33 µM; inactive = weaker than that. This is one part of the list.

Biological target: Lysosomal acid glucosylceramidase (Homo sapiens) (UniProt P04062)
Experiment: Glucocerebrosidase;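 also: the screen sought inhibitors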
Conditions: purified enzyme, resorufin glucoside fluorescence (screen aimed at inhibitors), 20 min
In short: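 Wild-type enzyme at 0.2 nM final in 50mM citric acid/KH2PO4, 10mM sodium taurocholate, 0.01% tween-20, pH 5.9, with resorufin beta-D-glucopyranoside at 30 uM final. Compounds titrated, 20 min at RT, red fluorescence read; AC50 from titration.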
Potency is read from the fitted curve at half-maximal effect.

Sequence of UniProt P04062 (P04062 whole entry, looked up): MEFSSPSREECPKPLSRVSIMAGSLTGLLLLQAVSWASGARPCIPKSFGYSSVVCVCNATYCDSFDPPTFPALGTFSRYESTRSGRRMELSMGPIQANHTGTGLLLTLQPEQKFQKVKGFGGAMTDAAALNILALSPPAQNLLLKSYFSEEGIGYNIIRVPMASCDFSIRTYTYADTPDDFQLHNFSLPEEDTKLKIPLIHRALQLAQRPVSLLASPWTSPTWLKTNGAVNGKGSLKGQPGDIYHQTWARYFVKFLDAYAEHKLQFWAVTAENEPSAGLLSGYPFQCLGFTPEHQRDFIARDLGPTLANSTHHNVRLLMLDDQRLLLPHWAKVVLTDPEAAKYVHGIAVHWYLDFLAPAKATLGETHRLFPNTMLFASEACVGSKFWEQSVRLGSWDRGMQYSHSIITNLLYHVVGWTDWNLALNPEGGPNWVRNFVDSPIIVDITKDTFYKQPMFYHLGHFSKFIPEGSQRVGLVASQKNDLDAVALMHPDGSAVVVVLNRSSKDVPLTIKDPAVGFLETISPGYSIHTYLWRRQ

Potency, inactive:
CC(C)c1ccc(OCC(=O)NCc2ccco2)cc1 > 76.9 µM
COc1ccc(CCNc2c(N)n(Cc3ccccc3)c(=O)[nH]c2=O)cc1OC > 76.9 µM
Cc1ccc(-n2ncc3c(NCc4ccccn4)ncnc32)c(C)c1 > 76.9 µM
COc1ccc(NC(=O)CS(=O)CC(=O)NC2CCCc3ccccc32)cc1 (stereo not drawn) > 76.9 µM
O=C(Nc1nnc(-c2ccco2)s1)C1CCN(S(=O)(=O)c2ccc(Cl)cc2)CC1 > 76.9 µM
c1ccc(CCn2nnnc2C(c2cccnc2)N2CCN(c3ccccc3)CC2)cc1 (stereo not drawn) > 76.9 µM
COC(=O)c1ccc(Oc2cc(C)nc(SC)n2)cc1 > 76.9 µM
O=C(NCc1cccnc1)C1CCCN(S(=O)(=O)c2ccc(Br)cc2)C1 (stereo not drawn) > 76.9 µM
Cc1ccc(CCNS(=O)(=O)c2cnc[nH]2)cc1 > 76.9 µM
O=C(CSc1nc2ccccc2s1)Nc1ncccn1 > 76.9 µM
C=CCn1c(SCc2nc3ccccc3[nH]2)nnc1-c1ccccn1 > 76.9 µM
CS(=O)(=O)N(CC(=O)NCCSC1CCCCC1)c1ccc2c(c1)OCO2 > 76.9 µM
O=C(CNCc1ccco1)Nc1ccccc1-n1cccc1 > 76.9 µM
CCn1c(COc2ccc(C)cc2)nnc1SCC(=O)Nc1ccc2c(c1)OCCO2 > 76.9 µM
Cc1cc(C)cc(N2CCCn3c2nc2c3c(=O)n(CC(=O)OCc3ccccc3)c(=O)n2C)c1 > 76.9 µM
CC(CNC(=O)c1cncc(O)c1)NC(=O)c1cncc(O)c1 (stereo not drawn) > 76.9 µM
CSc1nc(SCC(=O)NCc2ccco2)c2c3c(sc2n1)CN(C)CC3 > 76.9 µM
CCCc1cc(=O)n2[nH]c(CCc3ccccc3)nc2n1 > 76.9 µM
O=C(c1cnn2cccnc12)N1CCN(Cc2ccc3c(c2)OCO3)CC1 > 76.9 µM
Cc1c(N=C2Nc3cccc4cccc2c34)c(=O)n(-c2ccccc2)n1C > 76.9 µM
CN1CCCN(C(=O)Cc2c(Cl)cccc2Cl)c2nc3ccccc3nc21 > 76.9 µM
CCOc1ccc(-n2c(SC)nc3c(c2=O)SCC3)cc1 > 76.9 µM
Cc1cc(NC(=O)CSc2nnc3c(C)cc4cc5c(cc4n23)OCO5)no1 > 76.9 µM
O=C(NCCNC(=O)c1cccs1)c1ccco1 > 76.9 µM
COC(=O)[C@H](C)NC(=O)Nc1cc(OC)ccc1OC > 76.9 µM
CCN(CC)S(=O)(=O)c1ccc(-c2nnc(SCC(=O)Nc3ccc4c(c3)OCO4)o2)cc1 > 76.9 µM
Cc1nc(CNS(=O)(=O)c2cccc(F)c2)cs1 > 76.9 µM
COC(=O)CCCC[C@H]1SC[C@H]2NC(=O)N[C@]21O
CCCCCn1c(N2CCN(c3cccc(Cl)c3)CC2)nc2c1c(=O)[nH]c(=O)n2C > 76.9 µM
CNc1nc(SCc2ccccc2)nc(N2CCOCC2)n1 > 76.9 µM
COc1cc(OC)cc(C(=O)N(CN2CCCC2=O)c2ccccc2OC)c1 > 76.9 µM
COc1ccccc1C(c1nnnn1CS(=O)(=O)c1ccc(C)cc1)N1CCSCC1 (stereo not drawn) > 76.9 µM
Cc1ccc(-c2oc3ncnc(N)c3c2-c2ccc(C)cc2)cc1 > 76.9 µM
COc1ccc(Cl)c(NC(=O)Nc2c(C)n(-c3ccccc3)c(=O)n2C)c1 > 76.9 µM
O=C(CSC1=NCCS1)N1CCCCCC1 > 76.9 µM
CCC(=O)Nc1ccc(Cl)c(NC(=O)C(C)C)c1 > 76.9 µM
O=C(Nc1ccccc1Cl)c1cnccn1 > 76.9 µM
COc1ccccc1-c1nnc(SCC(=O)N2CCC(C)CC2)o1 > 76.9 µM
O=c1[nH]c(N2CCc3ccccc3C2)nc2c1CCC2 > 76.9 µM
O=C(CCN1C(=O)C2C3C=CC(C3)C2C1=O)N1CCN(c2ccc(F)cc2)CC1 (stereo not drawn) > 76.9 µM
COc1ccccc1C(=O)NCC(c1cccnc1)N(C)C (stereo not drawn) > 76.9 µM
COc1ccc(CC(=O)N2CCN(c3ccccn3)CC2)cc1 > 76.9 µM
COc1cc(S(=O)(=O)NCC2CCCO2)c(OC)cc1Cl (stereo not drawn) > 76.9 µM
CC1Cc2ccccc2N1CC(=O)NC(=O)NCc1ccco1 (stereo not drawn) > 76.9 µM
O=c1cccc(-c2ccccc2)[nH]1 > 76.9 µM
COc1ccc(-c2nnc(SCC(=O)Nc3ncc(C)s3)n2-c2ccccc2)cc1OC > 76.9 µM
CS(=O)(=O)N1CCN(C(=O)c2ccc(F)cc2)CC1 > 76.9 µM
CCc1ccccc1NS(=O)(=O)c1cc(C)ccc1OC > 76.9 µM
O=C(O)Cc1cc2c(s1)CCCCC2 > 76.9 µM
Cc1cc(N2CCN(c3cccc(C(F)(F)F)c3)CC2)n2nc(C)nc2n1 > 76.9 µM
O=C(Nc1nc(-c2ccccc2)cs1)C1CCCN(S(=O)(=O)c2ccccc2)C1 (stereo not drawn) > 76.9 µM
Cc1cccc2cc(CN(Cc3ccco3)C(=O)c3cccs3)c(=O)[nH]c12 > 76.9 µM
C=CCSc1nc2c(c(=O)[nH]c(=O)n2C)n1C(C)C > 76.9 µM
COc1ccc(NC(=O)COc2nc(N(C)C)nc(N(C)C)n2)cc1 > 76.9 µM
COCC(=O)Nc1nc2n(n1)C(c1ccc(OC)cc1)CC(c1ccc(OC)cc1)N2 (stereo not drawn) > 76.9 µM
Cc1cccc(-n2c(=O)[nH]c3c(C(N)=O)nc(C(C)C)nc32)c1 > 76.9 µM
COC(=O)c1cc(C)sc1NC(=O)CCCC(=O)O > 76.9 µM
Cn1nc(-c2ccc(N3CCCCC3)c(NC(=O)c3ccco3)c2)c2ccccc2c1=O > 76.9 µM
C/C(N)=C(/C#N)C(=O)COc1ncnc2ccccc12 > 76.9 µM
Cc1ccc(-c2csc(N(CCCN3CCOCC3)C(=O)c3ccco3)n2)cc1 > 76.9 µM
CCOC(=O)N1CCC(NC(=O)CSc2cc(=O)n(CC)c3ccccc23)CC1 > 76.9 µM
CC1CCCCC1NC(=O)c1nn(C)c(=O)c2ccccc12 (stereo not drawn) > 76.9 µM
Cc1ccc(NC(=O)CC2SCCNC2=O)cc1Cl (stereo not drawn) > 76.9 µM
COc1ccc(CC(=O)c2ccccc2C(=O)O)cc1 > 76.9 µM
Cc1cc(-c2nn3c(C)nnc3s2)ccc1NC(=O)C(C)(C)C > 76.9 µM
O=C(NCc1cccc(Cl)c1)c1cccnc1 > 76.9 µM
Cc1nn(-c2ccccc2)c(C)c1NS(=O)(=O)c1ccccc1 > 76.9 µM
c1ccc(N2CCN(c3c4c(nc5ncnn35)CCC4)CC2)cc1 > 76.9 µM
O=C(NC1CCCCC1)NC1CC2CCC(C1)N2C(=O)NC1CCCCC1 (stereo not drawn) > 76.9 µM
COC(=O)CC1Sc2ccccc2NC1=O (stereo not drawn) > 76.9 µM
Cc1cc(=O)oc(C)c1C(=O)NCCCN1CCN(c2ccc(F)cc2)CC1 > 76.9 µM
COc1ccc(NC(=O)c2ocnc2C)cc1OC > 76.9 µM
CCOC(=O)CNC(=O)C(=O)c1c(O)[nH]c2ccccc12 > 76.9 µM
Cc1ccc(OCCSc2nnc(-c3ccncc3)n2C)cc1 > 76.9 µM
NC(=O)c1cc(-c2ccccc2)nc(N2CCOCC2)n1 > 76.9 µM
O=C(COC(=O)c1ccco1)NCc1ccco1 > 76.9 µM
Cc1c(NC(=O)Cn2nc(C(=O)O)c3ccccc3c2=O)c(=O)n(-c2ccccc2)n1C > 76.9 µM
CC(C)NC(=O)NC(=O)COC(=O)Cc1ccsc1 > 76.9 µM
Cc1ccccc1Cn1c(=N)n(CC(=O)c2ccco2)c2ccccc21 > 76.9 µM
CCOC(=O)COc1ccc(S(=O)(=O)NCCC2=CCCCC2)cc1 > 76.9 µM
COc1ccccc1N1CCN(C(=O)CSc2nc(-c3ccccc3)cc(=O)[nH]2)CC1 > 76.9 µM
O=C(Nc1ccccc1C(F)(F)F)N1CCCC(O)C1 (stereo not drawn) > 76.9 µM
O=C(CSc1nc2ccccc2[nH]1)N1CCN(c2ccc(F)cc2)CC1 > 76.9 µM
CCCn1c(NCc2ccc(C)o2)nc2ccccc21 > 76.9 µM
COCCNC(=O)C1CC(=O)N(C2CCCCC2)C1 (stereo not drawn) > 76.9 µM
CCc1nc(NCC2CCCO2)c2oc3ccccc3c2n1 (stereo not drawn) > 76.9 µM
COc1ccc(S(=O)(=O)N(C)CC(=O)Nc2ccc3c(c2)OCCO3)cc1OC > 76.9 µM
O=C(NCCCN1CCCCC1)C1CCC(=O)N1CCc1ccccc1 (stereo not drawn) > 76.9 µM
O=[n+]1cc(-c2cc3ccccc3o2)n([O-])c2c1CCCC2 > 76.9 µM
CCOC(=O)Cc1csc(NC(=O)CCNS(=O)(=O)c2ccc3c(c2)CCC(=O)N3)n1 > 76.9 µM
CCSc1nnc(NC(=O)c2csc3c2CCCC3)s1 > 76.9 µM
O=C(NCc1ccccn1)c1cc(-c2ccccc2)on1 > 76.9 µM
Cc1cc(C(=O)Nc2ccc3c(c2)OCCO3)c(C)o1 > 76.9 µM
